Laboratory results published in the antibiotic and cytotoxicity screens of Wong et al. (2023).
The other results are listed elsewhere or left out.

How the values were obtained:
HSkMC = human skeletal muscle cells; experiment: cytotoxicity call (relative viability < 0.9); settings: 10 µM
HepG2 = experiment: cytotoxicity call (relative viability < 0.9); settings: 10 µM
S. aureus RN4220 = experiment: growth inhibition call (relative growth <= 0.2); settings: 50 µM

Question: Which cytotoxicity call (HSkMC) does the source give for `COc1ccc(S(=O)(=O)Nc2ccc3c(c2)C(=O)N([C@H](C)CO)C[C@H](C)[C@H](CN(C)C(=O)C2CCCCC2)OCCCC[C@H](C)O3)cc1` here?
Answer: inactive

Question: And the cytotoxicity call (HepG2)?
Answer: active

Question: What about the growth inhibition call (S. aureus RN4220) of the same compound?
Answer: inactive

Question: Which results are given for `COc1ccc(S(=O)(=O)N(C)C[C@H]2Oc3ccc(NS(C)(=O)=O)cc3C(=O)N([C@@H](C)CO)C[C@H]2C)cc1`?
Answer: cytotoxicity call (HSkMC): inactive; cytotoxicity call (HepG2): inactive; growth inhibition call (S. aureus RN4220): inactive

Question: For `NCC[C@H]1CC[C@@H](NC(=O)Cc2ccncc2)[C@H](CO)O1`, which cytotoxicity call (HSkMC) is on record?
Answer: inactive

Question: What about the cytotoxicity call (HepG2) of the same compound?
Answer: inactive

Question: What about the growth inhibition call (S. aureus RN4220) of the same compound?
Answer: inactive

Question: Which cytotoxicity call (HSkMC) does the source give for `CC(C)C#Cc1ccc2c(c1)O[C@@H](CN(C)C(=O)c1cnccn1)[C@@H](C)CN([C@H](C)CO)S2(=O)=O` here?
Answer: inactive

Question: And the cytotoxicity call (HepG2)?
Answer: inactive

Question: And the growth inhibition call (S. aureus RN4220)?
Answer: inactive

Question: For `C[C@H](CO)N1C[C@H](C)[C@@H](CN(C)Cc2ccc(C(F)(F)F)cc2)Oc2c(NC(=O)Nc3ccc(F)cc3)cccc2C1=O`, which cytotoxicity call (HSkMC) is on record?
Answer: inactive

Question: What about the cytotoxicity call (HepG2) of the same compound?
Answer: active

Question: And the growth inhibition call (S. aureus RN4220)?
Answer: inactive

Question: With `CC(C)N1[C@@H]2OC(C3O[C@H]4[C@H](O3)N(C(C)C)S(=O)(=O)N4C(C)C)O[C@@H]2N(C(C)C)S1(=O)=O` (some centres not stated) as the compound, how does the cytotoxicity call (HSkMC) read?
Answer: inactive

Question: What about the cytotoxicity call (HepG2) of the same compound?
Answer: inactive

Question: What about the growth inhibition call (S. aureus RN4220) of the same compound?
Answer: inactive

Question: How did the cytotoxicity call (HSkMC) turn out when `C[C@@H]1CCCCO[C@@H](CN(C)C(=O)Nc2ccccc2)[C@H](C)CN([C@@H](C)CO)C(=O)c2cc(NC(=O)Nc3ccc(F)cc3)ccc2O1` was run?
Answer: inactive

Question: What about the cytotoxicity call (HepG2) of the same compound?
Answer: inactive

Question: What about the growth inhibition call (S. aureus RN4220) of the same compound?
Answer: inactive

Question: `C[C@@H]1CN([C@@H](C)CO)C(=O)c2cc(NC(=O)Nc3ccccc3)ccc2O[C@H]1CN(C)Cc1ccc(-c2ccccc2)cc1` was tested. Which cytotoxicity call (HSkMC) did it give?
Answer: inactive

Question: And the cytotoxicity call (HepG2)?
Answer: active

Question: And the growth inhibition call (S. aureus RN4220)?
Answer: inactive

Question: Which cytotoxicity call (HSkMC) does the source give for `CCCC#Cc1cnc2c(c1)C(=O)N([C@@H](C)CO)C[C@@H](C)[C@H](CN(C)S(=O)(=O)c1cn(C)cn1)O2` here?
Answer: inactive

Question: What about the cytotoxicity call (HepG2) of the same compound?
Answer: inactive

Question: And the growth inhibition call (S. aureus RN4220)?
Answer: inactive

Question: For `Nc1nnc(C(F)(F)F)[nH]1`, which cytotoxicity call (HSkMC) is on record?
Answer: inactive

Question: What about the cytotoxicity call (HepG2) of the same compound?
Answer: inactive

Question: And the growth inhibition call (S. aureus RN4220)?
Answer: inactive

Question: With `C[C@H](CO)N1C[C@H](C)[C@H](CN(C)Cc2ccc(C(F)(F)F)cc2)Oc2ccc(NC(=O)CCC(F)(F)F)cc2C1=O` as the compound, how does the cytotoxicity call (HSkMC) read?
Answer: inactive

Question: What about the cytotoxicity call (HepG2) of the same compound?
Answer: inactive

Question: What about the growth inhibition call (S. aureus RN4220) of the same compound?
Answer: inactive

Question: How did the cytotoxicity call (HSkMC) turn out when `Cc1ccc(S(=O)(=O)N(C)C[C@H]2OCCCC[C@@H](C)Oc3ccc(NC(=O)CCCCCC(=O)Nc4ccccc4N)cc3C(=O)N([C@H](C)CO)C[C@@H]2C)cc1` was run?
Answer: inactive

Question: What about the cytotoxicity call (HepG2) of the same compound?
Answer: inactive

Question: What about the growth inhibition call (S. aureus RN4220) of the same compound?
Answer: inactive

Question: For `COc1ccc(CN(C)C[C@H]2OCCCC[C@@H](C)Oc3ccc(NC(=O)NC4CCCCC4)cc3C(=O)N([C@@H](C)CO)C[C@@H]2C)cc1`, which cytotoxicity call (HSkMC) is on record?
Answer: inactive

Question: What about the cytotoxicity call (HepG2) of the same compound?
Answer: inactive

Question: What about the growth inhibition call (S. aureus RN4220) of the same compound?
Answer: inactive

Question: What does the source list for `C[C@H]1CN([C@@H](C)CO)S(=O)(=O)c2ccc(Br)cc2O[C@@H]1CN(C)C(=O)CCN1CCCCC1`?
Answer: cytotoxicity call (HSkMC): inactive; cytotoxicity call (HepG2): inactive; growth inhibition call (S. aureus RN4220): inactive

Question: With `C[C@H](CO)N1C[C@H](C)[C@@H](CN(C)Cc2ccc(Cl)c(Cl)c2)Oc2ccc(NC(=O)CCC(F)(F)F)cc2CC1=O` as the compound, how does the cytotoxicity call (HSkMC) read?
Answer: inactive

Question: And the cytotoxicity call (HepG2)?
Answer: inactive

Question: And the growth inhibition call (S. aureus RN4220)?
Answer: inactive

Question: What does the source list for `C[C@H]1CN([C@@H](C)CO)C(=O)Cc2cc(NC(=O)Nc3cccc4ccccc34)ccc2O[C@H]1CN(C)C(=O)Nc1ccccc1`?
Answer: cytotoxicity call (HSkMC): inactive; cytotoxicity call (HepG2): inactive; growth inhibition call (S. aureus RN4220): inactive

Question: What does the source list for `O=C(C[C@H]1CC[C@H]2[C@@H](COC[C@H](O)CN2S(=O)(=O)c2ccc(Oc3ccccc3)cc2)O1)NCCN1CCCCC1`?
Answer: cytotoxicity call (HSkMC): inactive; cytotoxicity call (HepG2): inactive; growth inhibition call (S. aureus RN4220): inactive

Question: What does the source list for `C=CC[C@@H](CC(=O)N[C@@H](CO)Cc1ccccc1)C(=O)NC[C@@H](OC(=O)[C@@H](CC=C)Cc1ccc(F)cc1)c1ccccc1`?
Answer: cytotoxicity call (HSkMC): inactive; cytotoxicity call (HepG2): inactive; growth inhibition call (S. aureus RN4220): inactive

Question: `COc1ccc(S(=O)(=O)N(C)C[C@H]2Oc3ccc(NC(=O)Nc4cccc5ccccc45)cc3C(=O)N([C@@H](C)CO)C[C@@H]2C)cc1` was tested. Which cytotoxicity call (HSkMC) did it give?
Answer: inactive

Question: What about the cytotoxicity call (HepG2) of the same compound?
Answer: inactive

Question: What about the growth inhibition call (S. aureus RN4220) of the same compound?
Answer: inactive

Question: For `CCC1OC(=O)C(C)C(OC2CC(C)(OC)C(O)C(C)O2)C(C)C(OC2OC(C)CC(N(C)C)C2O)C(C)(O)CC(C)C2NC(COCCOC)OC(C2C)C1(C)O` (configuration not stated), which cytotoxicity call (HSkMC) is on record?
Answer: inactive

Question: And the cytotoxicity call (HepG2)?
Answer: inactive

Question: What about the growth inhibition call (S. aureus RN4220) of the same compound?
Answer: active

Question: For `COc1ccc(CN(C)C[C@@H]2OCCCC[C@@H](C)Oc3ccc(NC(=O)Nc4c(C)noc4C)cc3C(=O)N([C@H](C)CO)C[C@@H]2C)cc1`, which cytotoxicity call (HSkMC) is on record?
Answer: inactive

Question: What about the cytotoxicity call (HepG2) of the same compound?
Answer: inactive

Question: And the growth inhibition call (S. aureus RN4220)?
Answer: inactive

Question: How did the cytotoxicity call (HSkMC) turn out when `C[C@@H]1CN([C@H](C)CO)C(=O)c2c(c3ccccc3n2C)-c2ccccc2CO[C@H]1CN(C)Cc1ccc(F)cc1` was run?
Answer: inactive

Question: And the cytotoxicity call (HepG2)?
Answer: inactive

Question: What about the growth inhibition call (S. aureus RN4220) of the same compound?
Answer: inactive

Question: What does the source list for `C=CCN1C(=O)[C@@]2(O[C@@H](CCO)[C@H]([Si](C)(C)c3ccc(OC)cc3)[C@H]2C)c2cc(NC(=O)[C@H](C)O)ccc21`?
Answer: cytotoxicity call (HSkMC): inactive; cytotoxicity call (HepG2): inactive; growth inhibition call (S. aureus RN4220): inactive

Question: With `COCC#Cc1cnc2c(c1)C(=O)N([C@@H](C)CO)C[C@@H](C)[C@H](CN(C)C(=O)Nc1ccccc1OC)O2` as the compound, how does the cytotoxicity call (HSkMC) read?
Answer: inactive

Question: And the cytotoxicity call (HepG2)?
Answer: inactive

Question: And the growth inhibition call (S. aureus RN4220)?
Answer: inactive
